Reference: publication PMC7405385
No constants are given. Whether binding was seen depends on the method and setting. For some of these results: In cells and extracts the contact can be indirect. Some results given as binding are weak or reduced against the parent protein; the word gives no strength.

Chains of the proteins cited; added tags and fusions are not shown. Lines headed by an entry give the natural chain unless they say otherwise; changes in a name come on top.
UniProt P52630: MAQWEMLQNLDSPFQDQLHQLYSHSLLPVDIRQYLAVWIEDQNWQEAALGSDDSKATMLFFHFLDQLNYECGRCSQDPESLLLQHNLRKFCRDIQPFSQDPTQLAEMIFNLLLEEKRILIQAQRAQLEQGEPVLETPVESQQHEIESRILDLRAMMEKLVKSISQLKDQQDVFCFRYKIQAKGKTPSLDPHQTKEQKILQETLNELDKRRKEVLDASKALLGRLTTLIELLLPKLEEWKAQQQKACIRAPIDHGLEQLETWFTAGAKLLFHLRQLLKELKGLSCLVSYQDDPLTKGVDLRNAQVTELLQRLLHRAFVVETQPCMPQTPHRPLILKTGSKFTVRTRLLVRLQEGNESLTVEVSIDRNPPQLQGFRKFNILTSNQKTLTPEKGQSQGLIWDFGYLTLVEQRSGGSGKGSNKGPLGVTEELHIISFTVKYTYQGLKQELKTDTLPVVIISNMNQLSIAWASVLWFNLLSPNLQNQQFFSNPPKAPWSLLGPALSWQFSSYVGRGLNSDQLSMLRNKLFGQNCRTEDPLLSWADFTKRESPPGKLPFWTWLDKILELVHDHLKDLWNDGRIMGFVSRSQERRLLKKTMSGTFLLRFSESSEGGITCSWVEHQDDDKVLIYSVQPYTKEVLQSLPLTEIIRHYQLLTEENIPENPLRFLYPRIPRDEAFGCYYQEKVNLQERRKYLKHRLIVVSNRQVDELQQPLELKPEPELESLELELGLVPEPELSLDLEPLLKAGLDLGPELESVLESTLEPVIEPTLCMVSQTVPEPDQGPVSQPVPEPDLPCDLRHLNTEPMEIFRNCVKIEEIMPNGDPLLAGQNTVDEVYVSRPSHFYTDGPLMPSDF

B1: IKK-ε, commercial purified protein (enzyme, UniProt Q14164 1-716)
chain: MQSTANYLWHTDDLLGQGATASVYKARNKKSGELVAVKVFNTTSYLRPREVQVREFEVLRKLNHQNIVKLFAVEETGGSRQKVLVMEYCSSGSLLSVLESPENAFGLPEDEFLVVLRCVVAGMNHLRENGIVHRDIKPGNIMRLVGEEGQSIYKLTDFGAARELDDDEKFVSVYGTEEYLHPDMYERAVLRKPQQKAFGVTVDLWSIGVTLYHAATGSLPFIPFGGPRRNKEIMYRITTEKPAGAIAGAQRRENGPLEWSYTLPITCQLSLGLQSQLVPILANILEVEQAKCWGFDQFFAETSDILQRVVVHVFSLSQAVLHHIYIHAHNTIAIFQEAVHKQTSVAPRHQEYLFEGHLCVLEPSVSAQHIAHTTASSPLTLFSTAIPKGLAFRDPALDVPKFVPKVDLQADYNTAKGVLGAGYQALRLARALLDGQELMFRGLHWVMEVLQATCRRTLEVARTSLLYLSSSLGTERFSSVAGTPEIQELKAAAELRSRLRTLAEVLSRCSQNITETQESLSSLNRELVKSRDQVHEDRSIQQIQCCLDKMNFIYKQFKKSRMRPGLGYNEEQIHKLDKVNFSHLAKRLLQVFQEECVQKYQASLVTHGKRMRVVHETRNHLRLVGCSVAACNTEAQGVQESLSKLLEELSHQLLQDRAKGAQASPPPIAPYPSPTRKDLLLHMQELCEGMKLLASDLLDNNRIIERLNRVPAPPDV
B2: TBK1, purified (enzyme, UniProt Q9UHD2 1-729)
chain: MQSTSNHLWLLSDILGQGATANVFRGRHKKTGDLFAIKVFNNISFLRPVDVQMREFEVLKKLNHKNIVKLFAIEEETTTRHKVLIMEFCPCGSLYTVLEEPSNAYGLPESEFLIVLRDVVGGMNHLRENGIVHRDIKPGNIMRVIGEDGQSVYKLTDFGAARELEDDEQFVSLYGTEEYLHPDMYERAVLRKDHQKKYGATVDLWSIGVTFYHAATGSLPFRPFEGPRRNKEVMYKIITGKPSGAISGVQKAENGPIDWSGDMPVSCSLSRGLQVLLTPVLANILEADQEKCWGFDQFFAETSDILHRMVIHVFSLQQMTAHKIYIHSYNTATIFHELVYKQTKIISSNQELIYEGRRLVLEPGRLAQHFPKTTEENPIFVVSREPLNTIGLIYEKISLPKVHPRYDLDGDASMAKAITGVVCYACRIASTLLLYQELMRKGIRWLIELIKDDYNETVHKKTEVVITLDFCIRNIEKTVKVYEKLMKINLEAAELGEISDIHTKLLRLSSSQGTIETSLQDIDSRLSPGGSLADAWAHQEGTHPKDRNVEKLQVLLNCMTEIYYQFKKDKAERRLAYNEEQIHKFDKQKLYYHATKAMTHFTDECVKKYEAFLNKSEEWIRKMLHLRKQLLSLTNQCFDIEEEVSKYQEYTNELQETLPQKMFTASSGIKHTMTPIYPSSNTLVEMTLGMKKLKEEMEGVVKELAENNHILERFGSLTMDGGLRNVDCL
B3: IKK-ε ectopically expressed in HEK293T cells (enzyme, UniProt Q14164 1-716)
chain: B1 chain

Assays:
[1] = molecular target: Flag-STAT2 wild type from HEK293T cells (human) (UniProt P52630); assay: pull-down; in vitro: purified Flag-STAT2 mixed with commercial IKK-ε (or purified TBK1), immunoprecipitated with anti-Flag, immunoblotted; both purified
[2] = molecular target: Flag-STAT2 wild type from HEK293T cells (human) (UniProt P52630); assay: co-IP; HEK293T cells co-transfected with IKK-ε and STAT2; immunoprecipitation of Flag-STAT2 from whole-cell lysates
[3] = molecular target: Flag-STAT2 T404A expressed in HEK293T cells (human) (UniProt P52630); assay: as above

| Binder | binding [1] | binding [2] | binding [3] |
| --- | --- | --- | --- |
| B1 | binds | – | – |
| B2 | binds | – | – |
| B3 | – | binds | binds |
